Among all 420,000 compounds or so, about 50,000 (12%) were called active. Inconclusive results, whose numbers are uncertain, are shown with a selection of clear calls. Calls come from the whole dose curve; as a rule, active = well fitted inhibition curve with a large enough effect; inconclusive = small, poorly fitted or top-dose-only effect; inactive = flat fitted curve, though single readings scatter. Potencies of inconclusive entries are left out as doubtful fits.
Test: qHTS for Inhibitors of human tyrosyl-DNA phosphodiesterase 1 (TDP1): qHTS in cells in presence of CPT; note: nearly all actives have a fitted effect of over 55% in size
Settings: chicken DT40 Tdp1-/-;hTDP1 cells + 20 nM CPT, ATP luminescence, 48 h; series mostly up to 46.2 µM
Procedure, shortened: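 Chicken DT40 Tdp1-/- cells complemented with human TDP1, 400 cells/well, exposed to compounds plus 20 nM camptothecin for at least 48 h at 37 C; viability read as ATP content by CellTiter-Glo luminescence.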
Potency is the fitted concentration of half-maximal effect; tags give direction and shape of the fitted curve.

SMILES | Potency
COc1ccc(C2C=C(c3ccccc3)Nc3nc(NC(=O)/C=C/c4ccc(Cl)cc4)nn32)cc1 (stereo not given) | active: 14.6 µM
COc1cccc(C2C3=C(N=c4s/c(=C\c5cccc(O)c5)c(=O)n42)c2ccccc2CC3)c1OC (stereo not given) | inactive
CCC1CCCCN1C(=O)c1cc(-c2ccc(Cl)c(Cl)c2)on1 (stereo not given) | inconclusive [inhibitor, single point]
CCCCNc1c(-c2ccc(SC(C)CC)c(OC)c2)nc2ccc(C)cn12 (stereo not given) | active: 5.8 µM
CCCc1cc(=O)oc2cc(OCc3cc(OC)c(OC)c(OC)c3)c(Cl)cc12 | inconclusive [inhibitor, partial curve]
Cc1ccc(S(=O)(=O)N2CCN(C(=O)COC(=O)C3CCC3)CC2)c(C)c1 | inactive
COc1cccc(Nc2c3c(nc4c(-c5ccccc5)c(C)nn24)CCC3)c1 | inactive
O=C(Nc1cccc(C(=O)N2CCCCC2)c1)C1CCCCC1 | inactive
CSc1ccc(C(=O)C2CCCN(C(=O)c3cccnc3SC)C2)cc1 (stereo not given) | inconclusive [inhibitor, single point]
Cc1nc2ncnn2c(C)c1CCC(=O)NCc1cccc(Cl)c1 | inactive
Cc1nn(-c2ccccc2)c2sc(C(=O)Nc3cccc(Br)c3)cc12 | inconclusive [inhibitor, single point]
O=C(CC1CC1)Nc1ccc2c(c1)[C@@H]1C[C@H](CC(=O)NC3CCCC3)O[C@@H](CO)[C@@H]1O2 | inactive
Cc1ccc(CSc2nnc(NC(=O)Cn3cnc4ccccc4c3=O)s2)cc1 | inconclusive [inhibitor, single point]
CCn1cc(C(=O)NCC(=O)NCCCN2CCOCC2)c(=O)c2cc3c(cc21)OCO3 | inactive
Cc1ccc(S(=O)(=O)Nc2ccc(N3CCCCC3)cc2)cc1 | inconclusive [inhibitor, single point]
Cc1[nH]n(-c2ccc([N+](=O)[O-])cc2)c(=O)c1C=NCCN1CCN(C(=O)c2ccccc2F)CC1 | active: 9.2 µM
CSCC[C@H](NC(=O)OC(C)(C)C)C(=O)N1CCC(C(=O)N[C@@H](C)C(=O)NC(C)c2ccccc2)CC1 (stereo not given in full) | inconclusive [inhibitor, single point]
COc1ccc(C)cc1S(=O)(=O)Nc1cc2c3c(c1)CCC(=O)N3CCC2 | inactive

SMILES | Potency
COC(=O)c1cc(S(=O)(=O)NCC2CCN(Cc3ccc(Cl)cc3)CC2)c[nH]1 | inconclusive [inhibitor, single point]
COc1ccc2c(c1)CCC(=O)[C@H](O)C[C@H](c1ccccc1)OC2=O | inconclusive [inhibitor, single point]
Cc1nc2nc(SCC(=O)NCCCN3CCCC(C)C3)nn2c(C)c1Cc1ccccc1Cl (stereo not given) | inconclusive [inhibitor, single point]
O=C(c1csc2c1CCCC2)N1CCCCC1 | inconclusive [inhibitor, full curve, poor fit]
N#Cc1cccnc1N1CCN(C(=O)c2cccc3c2C(=O)c2ccc(-c4ccc(Cl)c(C(F)(F)F)c4)cc2S3(=O)=O)CC1 | inconclusive [inhibitor, full curve, poor fit]
COc1ccc(CN2CCN(c3ncnc4scc(-c5ccc(F)cc5)c34)CC2)cc1 | active: 16.4 µM
CCOc1ccccc1NC(=O)CSC1=C(C#N)C(c2ccco2)C(C(=O)Nc2nc3ccccc3s2)=C(C)N1 (stereo not given) | inconclusive [inhibitor, single point]
Cc1noc(C)c1S(=O)(=O)NCCc1csc2nc(-c3ccc(Cl)cc3)nn12 | active: 23.1 µM
O=C(COc1ccc(F)cc1)Nc1ccc(Cl)c(-c2nc3ccccc3[nH]2)c1 | inconclusive [inhibitor, single point]
COc1ccccc1-c1nnc(C2CCN(S(=O)(=O)c3ccc(F)c(C)c3)CC2)o1 | active: 14.6 µM
COc1ccc(C(CNC(=O)Cn2[nH]c(=O)c3ccccc3c2=O)N2CCCC2)cc1 (stereo not given) | inconclusive [inhibitor, single point]
CCOC(=O)c1c(NC(=O)COc2ccc(Br)cc2)sc(C(C)=O)c1C | inconclusive [inhibitor, single point]
CCc1ccc(NC(=O)c2cc(S(=O)(=O)N3CCCC3)c[nH]2)cc1 | inconclusive [inhibitor, single point]
Cc1sc2nc(SCC(=O)NCc3ccco3)n(C)c(=O)c2c1C | inactive
Cc1cccc(CNC(=O)C2CCC(=O)N(Cc3ccccc3F)C2)n1 (stereo not given) | inactive
CN(C(=O)c1cccc(NC(=O)Cc2ccc(NC(=O)C3CCCN(C(=O)CCc4ccccc4)C3)cc2)c1)C1CCC1 (stereo not given) | inconclusive [inhibitor, single point]
Cc1ccc(NC(=O)c2ccc(C(=O)c3ccccc3)cc2)nc1 | active: 18.4 µM

From PubChem BioAssay AID686979 (National Center for Advancing Translational Sciences (NCATS), 2013)
